Data: the supplement of paper PMC4967469

Compound: CC1=C(C(=O)Nc2cc3cn[nH]c3cc2F)C(c2ccc(C(F)(F)F)cc2)CC(=O)N1 [GSK429286A]
Assay: Viability of human cancer cell lines after 72 h of drug (GDSC screen)
Conditions: top dose inferred
Method: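 Human cancer cell lines in 384-well plates, medium with 10% serum, drug for 72 h over a 256-fold dose range (nine 2-fold or five 4-fold steps up to the top dose). Adherent lines were fixed and stained with the nucleic acid dye Syto60, suspension lines read with resazurin; signal relative to control wells, capped at 0 and 100%. One two-parameter sigmoid per drug and line, fitted in a mixed model over all curves with the slope shared within a line.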

Q: For “SLVL (B-cell lymphoma, suspension, top dose 20 µM)”, which AUC is on record?
A: 0.912

Q: And the IC50?
A: > 20 µM

Q: Which results are given for “NCI-H747 (large intestine, adherent, top dose 20 µM)”?
A: AUC: 0.955; IC50: > 20 µM

Q: Which AUC does the source give for “SNU-C2B (large intestine, adherent, top dose 20 µM)” here?
A: 0.961

Q: And the IC50?
A: > 20 µM

Q: Which results are given for “PCI-30 (head and neck, adherent, top dose 20 µM)”?
A: AUC: 0.98; IC50: > 20 µM

Q: “BT-20 (breast, adherent, top dose 20 µM)” was tested. Which AUC did it give?
A: 0.984

Q: What about the IC50 of the same cell line?
A: > 20 µM

Q: “CTB-1 (B-cell lymphoma, suspension, top dose 20 µM)” was tested. Which AUC did it give?
A: 0.968

Q: What about the IC50 of the same cell line?
A: > 20 µM

Q: What does the source list for “MOG-G-CCM (glioma, adherent, top dose 20 µM)”?
A: AUC: 0.972; IC50: > 20 µM

Q: Which results are given for “SW780 (bladder, adherent, top dose 20 µM)”?
A: AUC: 0.986; IC50: > 20 µM

Q: Which AUC does the source give for “CAL-120 (breast, adherent, top dose 20 µM)” here?
A: 0.917

Q: And the IC50?
A: > 20 µM

Q: Which AUC does the source give for “MZ7-mel (melanoma, adherent, top dose 20 µM)” here?
A: 0.978

Q: What about the IC50 of the same cell line?
A: > 20 µM

Q: Which results are given for “22RV1 (prostate, adherent, top dose 20 µM)”?
A: AUC: 0.966; IC50: > 20 µM

Q: What does the source list for DOV13 (ovary, adherent, top dose 20 µM)?
A: AUC: 0.983; IC50: > 20 µM

Q: For “NCI-SNU-1 (stomach, suspension, top dose 20 µM)”, which AUC is on record?
A: 0.931

Q: What about the IC50 of the same cell line?
A: > 20 µM

Q: For “EPLC-272H (lung squamous cell carcinoma, adherent, top dose 20 µM)”, which AUC is on record?
A: 0.953

Q: And the IC50?
A: > 20 µM

Q: With “RD (rhabdomyosarcoma, adherent, top dose 20 µM)” as the cell line, how does the AUC read?
A: 0.976

Q: What about the IC50 of the same cell line?
A: > 20 µM

Q: For “SW1116 (large intestine, adherent, top dose 20 µM)”, which AUC is on record?
A: 0.985

Q: What about the IC50 of the same cell line?
A: > 20 µM

Q: “PC-3 [JPC-3] (lung adenocarcinoma, adherent, top dose 20 µM)” was tested. Which AUC did it give?
A: 0.96

Q: And the IC50?
A: > 20 µM

Q: How did the AUC turn out when “NCI-H209 (small cell lung carcinoma, suspension, top dose 20 µM)” was run?
A: 0.933

Q: And the IC50?
A: > 20 µM

Q: With “HH (T-cell leukaemia, suspension, top dose 20 µM)” as the cell line, how does the AUC read?
A: 0.912

Q: And the IC50?
A: > 20 µM

Q: Which AUC does the source give for “LP-1 (myeloma, suspension, top dose 20 µM)” here?
A: 0.979

Q: And the IC50?
A: > 20 µM

Q: With “HCC1569 (breast, adherent, top dose 20 µM)” as the cell line, how does the AUC read?
A: 0.954

Q: What about the IC50 of the same cell line?
A: > 20 µM

Q: Which results are given for “ESO26 (oesophagus, adherent, top dose 20 µM)”?
A: AUC: 0.936; IC50: > 20 µM

Q: Which results are given for “IPC-298 (melanoma, adherent, top dose 20 µM)”?
A: AUC: 0.984; IC50: > 20 µM

Q: “NCI-H2087 (lung adenocarcinoma, semi-adherent, top dose 20 µM)” was tested. Which AUC did it give?
A: 0.983

Q: And the IC50?
A: > 20 µM

Q: Which AUC does the source give for “CAL-62 (thyroid, adherent, top dose 20 µM)” here?
A: 0.975

Q: What about the IC50 of the same cell line?
A: > 20 µM

Q: With “VMRC-RCW (kidney, adherent, top dose 20 µM)” as the cell line, how does the AUC read?
A: 0.987

Q: What about the IC50 of the same cell line?
A: > 20 µM

Q: For “JJN-3 (haematopoietic neoplasm, suspension, top dose 20 µM)”, which AUC is on record?
A: 0.966

Q: And the IC50?
A: > 20 µM

Q: How did the AUC turn out when “NCI-H1437 (lung adenocarcinoma, adherent, top dose 20 µM)” was run?
A: 0.976

Q: What about the IC50 of the same cell line?
A: > 20 µM

Q: Which results are given for “LOU-NH91 (lung squamous cell carcinoma, adherent, top dose 20 µM)”?
A: AUC: 0.967; IC50: > 20 µM

Q: Which results are given for A431 (skin, adherent, top dose 20 µM)?
A: AUC: 0.982; IC50: > 20 µM

Q: Which results are given for “DMS-79 (small cell lung carcinoma, suspension, top dose 20 µM)”?
A: AUC: 0.977; IC50: > 20 µM

Q: Which results are given for “PE/CA-PJ15 (head and neck, adherent, top dose 20 µM)”?
A: AUC: 0.98; IC50: > 20 µM

Q: “NKM-1 (acute myeloid leukaemia, suspension, top dose 20 µM)” was tested. Which AUC did it give?
A: 0.956

Q: What about the IC50 of the same cell line?
A: > 20 µM

Q: How did the AUC turn out when “SW756 (cervix, adherent, top dose 20 µM)” was run?
A: 0.984

Q: And the IC50?
A: > 20 µM

Q: How did the AUC turn out when “Farage (B-cell lymphoma, suspension, top dose 20 µM)” was run?
A: 0.935

Q: What about the IC50 of the same cell line?
A: > 20 µM

Q: How did the AUC turn out when JHH-6 (liver, adherent, top dose 20 µM) was run?
A: 0.985

Q: And the IC50?
A: > 20 µM

Q: Which results are given for “NCI-H1651 (lung adenocarcinoma, adherent, top dose 20 µM)”?
A: AUC: 0.987; IC50: > 20 µM

Q: With “PA-TU-8988T (pancreas, adherent, top dose 20 µM)” as the cell line, how does the AUC read?
A: 0.985

Q: What about the IC50 of the same cell line?
A: > 20 µM

Q: With “HN (head and neck, adherent, top dose 20 µM)” as the cell line, how does the AUC read?
A: 0.979

Q: What about the IC50 of the same cell line?
A: > 20 µM

Q: How did the AUC turn out when “LNZTA3WT4 (glioma, adherent, top dose 20 µM)” was run?
A: 0.98

Q: What about the IC50 of the same cell line?
A: > 20 µM

Q: “HCT-116 (large intestine, adherent, top dose 20 µM)” was tested. Which AUC did it give?
A: 0.956

Q: What about the IC50 of the same cell line?
A: > 20 µM

Q: With “HuP-T3 (pancreas, adherent, top dose 20 µM)” as the cell line, how does the AUC read?
A: 0.983

Q: And the IC50?
A: > 20 µM

Q: With “HL-60 (acute myeloid leukaemia, suspension, top dose 20 µM)” as the cell line, how does the AUC read?
A: 0.896

Q: What about the IC50 of the same cell line?
A: > 20 µM

Q: For “H2595 (mesothelioma, adherent, top dose 20 µM)”, which AUC is on record?
A: 0.96

Q: What about the IC50 of the same cell line?
A: > 20 µM

Q: “SF268 (glioma, adherent, top dose 20 µM)” was tested. Which AUC did it give?
A: 0.961

Q: What about the IC50 of the same cell line?
A: > 20 µM

Q: With “451Lu (melanoma, adherent, top dose 20 µM)” as the cell line, how does the AUC read?
A: 0.985

Q: What about the IC50 of the same cell line?
A: > 20 µM

Q: For “SW48 (large intestine, adherent, top dose 20 µM)”, which AUC is on record?
A: 0.935

Q: What about the IC50 of the same cell line?
A: > 20 µM

Q: Which results are given for “ES7 (Ewing sarcoma, adherent, top dose 20 µM)”?
A: AUC: 0.829; IC50: 12.9 µM

Q: “YH-13 (glioma, adherent, top dose 20 µM)” was tested. Which AUC did it give?
A: 0.856

Q: What about the IC50 of the same cell line?
A: 17.6 µM

Q: “OCI-AML2 (acute myeloid leukaemia, suspension, top dose 20 µM)” was tested. Which AUC did it give?
A: 0.96

Q: And the IC50?
A: > 20 µM

Q: Which results are given for “ARH-77 (myeloma, suspension, top dose 20 µM)”?
A: AUC: 0.974; IC50: > 20 µM

Q: Which AUC does the source give for “SKG-IIIa (cervix, adherent, top dose 20 µM)” here?
A: 0.982

Q: And the IC50?
A: > 20 µM

Q: “NCI-H650 (lung adenocarcinoma, adherent, top dose 20 µM)” was tested. Which AUC did it give?
A: 0.943

Q: And the IC50?
A: > 20 µM

Q: With “SNU-398 (liver, adherent, top dose 20 µM)” as the cell line, how does the AUC read?
A: 0.702

Q: And the IC50?
A: 4.74 µM

Q: Which AUC does the source give for “NB-4 (acute myeloid leukaemia, suspension, top dose 20 µM)” here?
A: 0.942

Q: And the IC50?
A: > 20 µM

Q: With “VMRC-MELG (melanoma, adherent, top dose 20 µM)” as the cell line, how does the AUC read?
A: 0.983

Q: What about the IC50 of the same cell line?
A: > 20 µM

Q: Which results are given for “PC-3 (prostate, adherent, top dose 20 µM)”?
A: AUC: 0.954; IC50: > 20 µM

Q: Which results are given for “Hep 3B2_1-7 (liver, adherent, top dose 20 µM)”?
A: AUC: 0.981; IC50: > 20 µM

Q: What does the source list for ES-2 (ovary, adherent, top dose 20 µM)?
A: AUC: 0.987; IC50: > 20 µM

Q: What does the source list for “TYK-nu (ovary, adherent, top dose 20 µM)”?
A: AUC: 0.984; IC50: > 20 µM

Q: “HSC-39 (stomach, suspension, top dose 20 µM)” was tested. Which AUC did it give?
A: 0.97

Q: What about the IC50 of the same cell line?
A: > 20 µM

Q: “BT-483 (breast, adherent, top dose 20 µM)” was tested. Which AUC did it give?
A: 0.978

Q: And the IC50?
A: > 20 µM

Q: What does the source list for “PCI-15A (head and neck, adherent, top dose 20 µM)”?
A: AUC: 0.978; IC50: > 20 µM

Q: What does the source list for “NCI-H2029 (small cell lung carcinoma, adherent, top dose 20 µM)”?
A: AUC: 0.992; IC50: > 20 µM

Q: Which results are given for “NCI-H2444 (non-small cell lung carcinoma, adherent, top dose 20 µM)”?
A: AUC: 0.982; IC50: > 20 µM

Q: For “TCCSUP (bladder, adherent, top dose 20 µM)”, which AUC is on record?
A: 0.981

Q: And the IC50?
A: > 20 µM

Q: For “NCI-H847 (small cell lung carcinoma, adherent, top dose 20 µM)”, which AUC is on record?
A: 0.817

Q: And the IC50?
A: 8.57 µM

Q: With “HUTU-80 (digestive system, adherent, top dose 20 µM)” as the cell line, how does the AUC read?
A: 0.921

Q: What about the IC50 of the same cell line?
A: > 20 µM

Q: What does the source list for “NCI-H2122 (lung adenocarcinoma, adherent, top dose 20 µM)”?
A: AUC: 0.981; IC50: > 20 µM

Q: Which results are given for “NCI-H64 (small cell lung carcinoma, suspension, top dose 20 µM)”?
A: AUC: 0.995; IC50: > 20 µM

Q: Which AUC does the source give for “OAW-42 (ovary, adherent, top dose 20 µM)” here?
A: 0.98

Q: What about the IC50 of the same cell line?
A: > 20 µM

Q: For “CAPAN-1 (pancreas, adherent, top dose 20 µM)”, which AUC is on record?
A: 0.983

Q: And the IC50?
A: > 20 µM

Q: “ECC10 (stomach, suspension, top dose 20 µM)” was tested. Which AUC did it give?
A: 0.957

Q: And the IC50?
A: > 20 µM

Q: How did the AUC turn out when “KLE (endometrium, adherent, top dose 20 µM)” was run?
A: 0.976

Q: What about the IC50 of the same cell line?
A: > 20 µM

Q: How did the AUC turn out when SJSA-1 (bone, adherent, top dose 20 µM) was run?
A: 0.976

Q: What about the IC50 of the same cell line?
A: > 20 µM

Q: Which results are given for “NCI-H1693 (lung adenocarcinoma, adherent, top dose 20 µM)”?
A: AUC: 0.975; IC50: > 20 µM

Q: Which AUC does the source give for JHH-4 (liver, adherent, top dose 20 µM) here?
A: 0.987

Q: What about the IC50 of the same cell line?
A: > 20 µM

Q: How did the AUC turn out when A172 (glioma, adherent, top dose 20 µM) was run?
A: 0.979

Q: What about the IC50 of the same cell line?
A: > 20 µM

Q: For “MOLP-8 (myeloma, suspension, top dose 20 µM)”, which AUC is on record?
A: 0.867

Q: And the IC50?
A: 16.8 µM

Q: How did the AUC turn out when “Ca9-22 (head and neck, adherent, top dose 20 µM)” was run?
A: 0.975

Q: What about the IC50 of the same cell line?
A: > 20 µM

Q: Which results are given for “NCI-H716 (large intestine, suspension, top dose 20 µM)”?
A: AUC: 0.927; IC50: > 20 µM

By IC50 is meant the dose at which the fit gives 50% viability; fits outside the tested doses are given as limits. AUC is the area under the same curve over the 256-fold range up to the top dose, as a fraction: 1 means no effect, lower means more sensitive. Any top dose called inferred is not printed in the source and was worked back from the curve model.
